# Hit rate of the full screen: of about 410,000 compounds, about 6,400 (1.6%) were called active. The inconclusive results got no clear call from the source; some entries with a clear call stand among them for comparison. Calls follow the shape of the dose curve; as a rule, active = well fitted inhibition curve with a large enough effect; inconclusive = small, poorly fitted or top-dose-only effect; inactive = no such curve, though single readings can be large or run the other way. No potency is given beside an inconclusive call; the fits are too rough.
# Biological target: Glucagon-like peptide 1 receptor (Homo sapiens) (UniProt P43220)
# UniProt P43220, sequence (P43220 whole entry, looked up): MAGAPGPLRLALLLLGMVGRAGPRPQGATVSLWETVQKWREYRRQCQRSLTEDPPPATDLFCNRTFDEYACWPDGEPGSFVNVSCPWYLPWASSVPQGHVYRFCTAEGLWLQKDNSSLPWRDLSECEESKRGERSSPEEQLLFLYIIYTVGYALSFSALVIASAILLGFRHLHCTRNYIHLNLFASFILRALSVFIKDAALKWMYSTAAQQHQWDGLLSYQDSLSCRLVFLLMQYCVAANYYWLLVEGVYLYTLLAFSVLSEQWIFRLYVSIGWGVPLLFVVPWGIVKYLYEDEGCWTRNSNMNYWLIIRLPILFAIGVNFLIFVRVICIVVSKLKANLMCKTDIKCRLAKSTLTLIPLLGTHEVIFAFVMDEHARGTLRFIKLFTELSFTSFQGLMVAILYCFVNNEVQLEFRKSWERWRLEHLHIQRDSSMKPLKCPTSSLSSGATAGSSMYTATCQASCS
# Test: qHTS of GLP-1 Receptor Inverse Agonists (Inhibition Mode); also: nearly all actives have a fitted effect of over 55% in size
# Details: HEK293 GLP-1R CRE-luciferase, luminescence, 24 h, GLP-1R form is constitutively active; activity change, negative = inhibition: at 38.3 µM (top of the series) unless noted
# Procedure, shortened: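 Inverse agonism was detected as reduced cAMP-driven luciferase luminescence after 24 h compound treatment. The cells were HEK293 clones expressing constitutively active human GLP-1R with the reporter. Reporter-only and GPR119 cell lines served as counterscreen controls.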
# % is scaled to controls: 0 for no effect and ±100 for the full control effect; potency is read from the fitted curve at half-maximal effect; tags tell the direction and shape of the fitted curve.
Compound,Potency,"activity change, negative = inhibition"
N#CCC(=O)N/N=C/c1cn(Cc2ccc(Cl)c(Cl)c2)c2ccccc12,active: 1.26 µM,
O=C(CCNC(=O)Cn1cnc2ccccc2c1=O)NCC1CCCO1 (stereo not drawn),,inactive: 3.68% [at 0.307 µM]
Cc1cc(C)c(S(=O)(=O)N2CC=C(c3ccccc3)CC2)c(C)c1,"inconclusive [inhibitor, single point]",
CC(C)(C)c1ccc(NC(=O)CCNC(=O)c2ccco2)cc1,"inconclusive [inhibitor, single point]",
CCOc1ccc(NC(=O)c2cnc3sc(N4CCOCC4)nn3c2=O)cc1,inactive,
CCN1C(=O)[C@@H]2[C@@H](c3ccc(-c4ccc(OC)cc4)c(OC)c3)N3CCCC[C@@]3(C(=O)OC)[C@@H]2C1=O,"inconclusive [inhibitor, partial curve, poor fit]",
O=C1CCN(CCc2ccccc2)CCN1[C@H](COc1ccccc1)Cc1ccccc1,active: 10 µM,
COc1cccc(C2c3[nH]c4ccccc4c3CCN2Cc2cccn2-c2ncccn2)c1 (stereo not drawn),"inconclusive [inhibitor, partial curve, poor fit]",
COC(=O)CCN(c1ccccc1)C(CNS(=O)(=O)c1ccccc1)c1ccccc1 (stereo not drawn),"inconclusive [inhibitor, partial curve, poor fit]",
Cc1cc(C)c(C)c(S(=O)(=O)NCC(=O)NCC2CCCCC2)c1C,active: 6.31 µM,
O=C1C(=O)N(C2CCN(C(=O)c3cccc(Cl)c3)CC2)CCN1Cc1ccc(F)cc1,inactive,
CC(CNC(=O)COc1ccccc1)OC(=O)Nc1cccc(Cl)c1 (stereo not drawn),"inconclusive [inhibitor, partial curve]",
Cn1nnnc1SCC(=O)N1CCN(C(c2ccccc2)c2ccccc2)CC1,"inconclusive [inhibitor, partial curve, poor fit]",
O=C(/C=C/c1cccs1)NC(=S)NNC(=O)c1ccccc1O,"inconclusive [inhibitor, full curve, poor fit]",
O=C(CSc1nc2c([nH]c3ccccc32)c(=O)n1-c1ccccc1F)Nc1cccc(C(F)(F)F)c1,active: 11.2 µM,
Cc1cc(Oc2ccc(Cl)cc2)nc(-c2ccccn2)n1,"inconclusive [inhibitor, partial curve, poor fit]",
CCOC(=O)Cn1cc(/C=C/[N+](=O)[O-])c2ccccc21,"inconclusive [inhibitor, partial curve, poor fit]",
CN1CCN(S(=O)(=O)c2ccc(N3CCN(S(=O)(=O)c4cccs4)CC3)nc2)CC1,"inconclusive [inhibitor, full curve, poor fit]",
COC(=O)c1cc(-c2ccc(OC)cc2)n[nH]1,inactive,
CCC(NC(=O)c1cc(COc2cc(C)c(Cl)c(C)c2)on1)c1ccncc1 (stereo not drawn),"inconclusive [inhibitor, single point]",
COc1ccc(Cl)cc1N(C)C(=O)CCc1nc(-c2ccc(C)cc2)no1,"inconclusive [inhibitor, single point]",

Compound,Potency,"activity change, negative = inhibition"
COCCOC(=O)c1c(C)oc2ccc(NS(=O)(=O)c3ccc(F)cc3)cc12,"inconclusive [inhibitor, single point]",
Cn1c(=O)c2c(nc(NCCc3ccccc3)n2Cc2ccc(F)cc2)n(C)c1=O,inactive,
Cc1cc(O)c(C(C)C)cc1NC(=O)Nc1cccc2ccccc12,active: 6.31 µM,
CN(c1cccc(NC(=O)Nc2cccc(Cl)c2)c1)S(C)(=O)=O,"inconclusive [inhibitor, partial curve, poor fit]",
CCN1CCN(c2oc(COc3ccc(-c4ccccc4)cc3)nc2C#N)CC1,"inconclusive [inhibitor, single point]",
CCCCNCc1cc(Cl)c(OCCC)c(OCC)c1,"inconclusive [inhibitor, partial curve]",
Cc1ccccc1Nc1nc(N)c(C(=O)c2ccccc2Cl)s1,"inconclusive [inhibitor, partial curve, poor fit]",
COc1ccc(S(=O)(=O)Nc2cc3c4c(oc3c3ccccc23)CCCC4=O)cc1,active: 5.01 µM,
CC(C)(O)C#Cc1ccc(CN2CCN(Cc3ccccc3)C(CCO)C2)cc1 (stereo not drawn),"inconclusive [inhibitor, partial curve, poor fit]",
COc1cccc2c1OC1(C)CC2N(C(=O)c2ccco2)C(=S)N1c1ccc(F)cc1 (stereo not drawn),"inconclusive [inhibitor, partial curve]",
Cc1ccccc1-n1nnnc1SCc1csc(-c2ccccc2)n1,"inconclusive [inhibitor, partial curve, poor fit]",
O=C(COc1ccc(Cl)cc1)N1CCN(c2ccc([N+](=O)[O-])c(N3CCCCC3)c2)CC1,"inconclusive [inhibitor, single point]",
CCc1nc2ccccc2c(NC(=O)CN2CCC(C)CC2)c1C,"inconclusive [inhibitor, partial curve, poor fit]",
COC(=O)c1cccc(NS(=O)(=O)c2ccc(OC)c(OC)c2)c1C,inactive,
CC1CCN(C(=O)c2ccc(CNS(=O)(=O)c3ccc(C(C)(C)C)cc3)cc2)CC1,"inconclusive [inhibitor, partial curve, poor fit]",
CCOc1ccc(-n2cc(-c3ccccc3)c3c(NC4CCCC4)ncnc32)cc1,"inconclusive [inhibitor, full curve, poor fit]",
COC(=O)C1=C(C)NC(=S)NC1c1ccc(-c2cc(Cl)ccc2Cl)o1 (stereo not drawn),inactive,
Cc1ccc(C(CNS(=O)(=O)c2ccc([N+](=O)[O-])cc2)N2CCN(C)CC2)cc1 (stereo not drawn),"inconclusive [inhibitor, partial curve, poor fit]",
Cc1c(CC(=O)N2CCN(C(=O)C3COc4ccccc4O3)CC2)c(=O)oc2cc(O)cc(O)c12 (stereo not drawn),"inconclusive [inhibitor, single point]",
CC1=C(c2ccc(C)c(C)c2)S(=O)(=O)N(Cc2ccc(C(=O)Nc3cc(F)ccc3F)cc2)C1=O,inactive,
CC1=CC(C)(C)N2C(=O)C3(C(C#N)=C(N)Oc4cc(O)ccc43)c3cccc1c32 (stereo not drawn),"inconclusive [inhibitor, partial curve, poor fit]",

Compound,Potency,"activity change, negative = inhibition"
CCC(=O)Nc1c(S(=O)(=O)c2ccc(C)cc2)c2nc3ccccc3nc2n1C(C)c1ccccc1 (stereo not drawn),"inconclusive [inhibitor, single point]",
Cc1ccc(S(=O)(=O)C=CS(=O)(=O)c2ccc(C)cc2)cc1,inactive,
Cc1ccc(N2C(=O)CSC23C(=O)N(CC(=O)NCc2ccccc2)c2ccccc23)cc1 (stereo not drawn),inactive,
Cc1ccc(NC(=O)C2CCCN(S(=O)(=O)c3cccs3)C2)cc1 (stereo not drawn),"inconclusive [inhibitor, partial curve, poor fit]",
COc1ccc(CCNc2oc(Cc3cccc4ccccc34)nc2C#N)cc1OC,"inconclusive [inhibitor, single point]",
CCN(CC)CCCNC(=O)c1sc2ncn(CC(=O)Nc3ccc(C)c(Cl)c3)c(=O)c2c1C,"inconclusive [inhibitor, partial curve, poor fit]",
N#Cc1cn(CCCOc2ccccc2)c2ccccc12,"inconclusive [inhibitor, single point]",
NC(=S)N/N=C/c1ccc(-c2ccc(SC(F)F)cc2)o1,"inconclusive [inhibitor, full curve, poor fit]",
O=C(CCS(=O)(=O)c1ccc(F)cc1)Nc1ccc(N2CCN(Cc3ccccc3)CC2)cc1,"inconclusive [inhibitor, partial curve, poor fit]",
O=C1CC2(CCCC2)C(=O)N1c1ccc(S(=O)(=O)NCC2CC2)cc1Cl,inactive,
O=C(CN1C(=O)NC2(CCCC2)C1=O)OCCOc1cccc(Cl)c1,inactive,
O=C(Cc1ccc(Cl)cc1)N/N=C/c1cccc(O)c1,"inconclusive [inhibitor, partial curve, poor fit]",
COc1ccc(-c2csc3ncnc(N4CCN(C(=O)c5ccco5)CC4)c23)cc1,inactive,
C[C@H](CO)N1C[C@H](C)[C@H](CN(C)Cc2ccc(Oc3ccccc3)cc2)Oc2cc(Br)ccc2S1(=O)=O,"inconclusive [inhibitor, partial curve, poor fit]",
CC1CN(S(=O)(=O)c2ccc(C(=O)N(CCCN(C)C)c3nc4c(Cl)cccc4s3)cc2)CC(C)O1 (stereo not drawn),"inconclusive [inhibitor, single point]",
CCCCn1c(SCC(N)=O)nc2ccc(N3CCOCC3)cc2c1=O,inactive,
CCCCNC(=O)c1ccc2c(c1)N=C(CC)c1ccccc1S2,"inconclusive [inhibitor, partial curve]",
CCN1CCN(C(=O)c2ccc(Sc3ccccc3Cl)c([N+](=O)[O-])c2)CC1,"inconclusive [inhibitor, single point]",
CN1CCCC(OC(=O)c2cccc(S(=O)(=O)N3CCCCCC3)c2)C1 (stereo not drawn),"inconclusive [inhibitor, full curve, poor fit]",
Cc1ccccc1CN1C(=O)c2ccccc2Sc2ccc(C(=O)NCCc3ccccc3)cc21,"inconclusive [inhibitor, partial curve, poor fit]",
CCOc1ccccc1NC(=S)NCc1ccccc1,"inconclusive [inhibitor, partial curve, poor fit]",

# Reference: PubChem BioAssay AID624417 (National Center for Advancing Translational Sciences (NCATS), 2012)
